Paper PMC12136788
The other results are listed elsewhere or left out.

T1: UNK ZnF1-3 (human, UniProt Q9C0B0 31-174)
T1 sequence: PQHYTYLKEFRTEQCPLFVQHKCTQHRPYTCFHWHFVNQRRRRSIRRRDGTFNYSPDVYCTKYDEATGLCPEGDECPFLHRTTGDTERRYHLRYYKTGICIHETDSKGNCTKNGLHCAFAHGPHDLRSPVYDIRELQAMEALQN

B1: 38536359_38536479_3342_CDS_ENSG00000182670_ENST00000355666|human|control|control (ssRNA)
RNA: GGGAGUUCUACAGUCCGACGAUCCCAUAGCUUCUUAUUGCGGACAACAUAUUCGUUACUGUGUUGGUCAUAGAGAGCUUCGAAUUCUUCUACAUCUUGCCGAAGAUGGUCAGGCACUGCAAAUGGGCCUGCAGAAUCUGAAUUCAACAGAGGAUUGAGCAUCA
B2: chr3:179052105:179052106:+_ENSG00000121864_ENST00000484866|hu_mus|motif|central (ssRNA)
RNA: GGGAGUUCUACAGUCCGACGAUCCCCAAACCUCAUCAAGCACUCACUACAUUUAUGAGGCAAGUCAGCUGAAUGCUUGAAAUCGGGAUGAAUUUUAAGAUCGUCAAUUUGUCCUGUUGAAUAUUCACAAUAUUGGCAUAAGUACAACAGAGGAUUGAGCAUCA
B3: chr8:95500983:95500984:-_ENSG00000164944_ENST00000437199|hu_hu|hu_hu_hu_mus_True|28_108 (ssRNA)
RNA: GGGAGUUCUACAGUCCGACGAUCAGAAGGAUUUUUACGAGUAAAGGACCGUACAUGACGGCCUCUACCACUGCCUCCACUAACAAACUUUCCUCUCGAGCCUCCACCUGCCGCUAUUGUACUAGCCCAGGACGGUCCCAGGCCCAACAGAGGAUUGAGCAUCA
B4: chr14:55818557:55818558:+_ENSG00000178974_ENST00000313833|hu_hu|FALSE|FALSE (ssRNA)
RNA: GGGAGUUCUACAGUCCGACGAUCUGUUGUGCUUUCAUUCAACUGGGAAUAGUCUGACAAGUGCUGACCAGGUGGCAAAAAAAACAACAUCCCUGGAACUGGGUCUUCACAGGAGUUUAAAAUGGAAGGCUGGUCUUUGUCUACCAACAGAGGAUUGAGCAUCA
B5: chr18:56819859:56819860:+_ENSG00000166562_ENST00000588875|hu_mus|hu_hu_hu_mus_True|38_78 (ssRNA)
RNA: GGGAGUUCUACAGUCCGACGAUCAACCUUGAUUACUCUGUGAACUAUCGGAAUGUCUCGUCCUUCAACCUUAAAAACAACUAUUUCACCAGCUCUGAUUGGGUCUUCCCGGAAAUUCGUGAGGAACAGCAGAUCUCCUCUGUGCAACAGAGGAUUGAGCAUCA
B6: chr18:34476965:34476966:+_ENSMUSG00000005871_ENSMUST00000115781|mus_mus|motif|central (ssRNA)
RNA: GGGAGUUCUACAGUCCGACGAUCCAGUUUCCUCCUCAGGGUUGGGCUUGGGGCUUCUUUGAUGAAAGUAGACUGGCGUACGGAUGCAGGCCUUUCUGAUCUGUCUGAUUCACUUCCACUUGAUUUAGUUGAAGACAUUCUAGACAACAGAGGAUUGAGCAUCA
B7: chr16:94664741:94664742:+_ENSMUSG00000040785_ENSMUST00000117648|mus_hu|mus_mus_mus_hu_False|8_98 (ssRNA)
RNA: GGGAGUUCUACAGUCCGACGAUCUGGUACUGAUCUUUGCAUUGGAUAUUCAGGAGAAAGGCUGGCCAAGGGUGUAUAUAUGCUGGUGUACUGGGGCAAACCUGGUAACACGUUUAUGUAUGCUGGCCGCUGGGUGAUGAUAUCCAACAGAGGAUUGAGCAUCA
B8: chr10:33190432:33190433:-_ENSG00000150093_ENST00000302278|hu_mus|hu_hu_hu_mus_True|48_108 (ssRNA)
RNA: GGGAGUUCUACAGUCCGACGAUCUACAUUUUCAAAACCUGCAUGUGAAUAAAACCCUGGCCACAGAGCCCCAAAACUACCCUACUGUGACUAUGGAGCUGCUGCUGUGAGCUUGGUGUUGCAAAAUCCGCCUGAGUAGGAUUCCAACAGAGGAUUGAGCAUCA
B9: 40576651_40585488_1869_3pUTR_ENSMUSG00000025757_ENSMUST00000077083|mouse|control|control (ssRNA)
RNA: GGGAGUUCUACAGUCCGACGAUCGAGGUGCCUUUGCUUUGGCCCCGGUGUGGUCAAUCUCCUCUUCUGGGGUGUGCUCAGCAUGACAUUUCUGAUGACCUCCUUCUUCUUGGUCAACCUGCAUUUUGUCCACAUCCUCUUUGCCAACAGAGGAUUGAGCAUCA
B10: chr2:119791414:119791415:+_ENSMUSG00000033943_ENSMUST00000110774|mus_mus|FALSE|FALSE (ssRNA)
RNA: GGGAGUUCUACAGUCCGACGAUCUCCUACUUUACCAGAAAGCUUAGGUUUUUAAUUAUGACUGAAAGGGUAAGGGAAGAACUAUUCUGGAUAUGAAACAGUCUGCUGAAUGACAAAAUCCCUUCACUUUGGUAUUCCAUAAUACAACAGAGGAUUGAGCAUCA
B11: chr8:86505109:86505110:+_ENSMUSG00000005469_ENSMUST00000005606|mus_mus|FALSE|FALSE (ssRNA)
RNA: GGGAGUUCUACAGUCCGACGAUCCUUGUGCUUCACCAGCAUCACUCGCCCAAAGGAGCCGGUGCCAAGGGUCUUGAUUCUAUCAAACUGAUCCAACUGGGCUGUAUUCUGAGAAGGGGUCUCCCAUUUUUUCAGGAAAUCUUCCAACAGAGGAUUGAGCAUCA
B12: 114483779_114483899_1066_CDS_ENSG00000163349_ENST00000369558|human|control|control (ssRNA)
RNA: GGGAGUUCUACAGUCCGACGAUCCUGCUGCAAGAUUGGUCUGAUGUACUUGAGUGGCAGUGGGCUAAAUUUGUUUUGCUUUAGAAAAUCAUAUAAGUUCUGCUCCAACAUUUCAAAAACAAGGCAGGUGUGAUUCUUAUGCUGCAACAGAGGAUUGAGCAUCA
B13: chr7:75932113:75932114:+_ENSG00000106211_ENST00000248553|hu_hu|hu_hu_hu_mus_False|18_88 (ssRNA)
RNA: GGGAGUUCUACAGUCCGACGAUCCUGCGACCACUCAUCGGGCAACCGGGGCAGCCCGAAAGCUUGAUCGAAGAGGCGGCUGUGUGCAGGGUACCAGUCCCGGAAUGGUUCCCAGCUGCCCCGCAGGAGCAGCGAGAAGGGCACCAACAGAGGAUUGAGCAUCA
B14: 46328956_46329076_1860_CDS_ENSMUSG00000033949_ENSMUST00000037011|mouse|control|control (ssRNA)
RNA: GGGAGUUCUACAGUCCGACGAUCUGUGUAAUGGCCCACUUGGAUGCGCUCCGCAGCCAGGAGGACGUUAAAUCCAGCUCUGCUCUCCACCCGGUCUCUCUUCAGGUUCAGCAAGAGGUGCUCAGUGUUGUAGCCACACUUCUCCAACAGAGGAUUGAGCAUCA
B15: chr4:140265382:140265383:+_ENSG00000164134_ENST00000296543|hu_hu|motif|central (ssRNA)
RNA: GGGAGUUCUACAGUCCGACGAUCUUCUCUAUAGAGACCUGCUUCCCGAAGAACUUGAUUCUGAUAUAAGAGUAGUUCACGGUAUUCAUAAUCCACCUUGUCAGGGGAUGUCUGUUGUGUUUUCCUAAAUUCUUCUAAAAUCUUCAACAGAGGAUUGAGCAUCA
B16: chr10:75834556:75834557:+_ENSG00000035403_ENST00000372755|perfect_dup|FALSE|FALSE (ssRNA)
RNA: GGGAGUUCUACAGUCCGACGAUCAUUAAUUUCAGCACUCAUUUUUUCUACAGUAAAAUUGCGAUUUUUUAAAGCUUCCUCUAUGCCUUGGUUUUUUGAGUUUUUAGUUGUUACAAAAAUCUUCAUAGCUGAAAUGAGAACUGGCAACAGAGGAUUGAGCAUCA
B17: chr15:98867917:98867918:+_ENSMUSG00000043091_ENSMUST00000058914|mus_hu|motif|central (ssRNA)
RNA: GGGAGUUCUACAGUCCGACGAUCAGGGUCACAUUUCACCAUCUGGUUGGCUGGCUCAAAGCAAGCAUUGGUGAUCUCUGCGGCAGUAAGCUGUUCGUGGUAGGCUUUCUCAGCAGAGAUGACAGGGGCAUAUGUGGCCAGAGGCAACAGAGGAUUGAGCAUCA
B18: chr6:76550321:76550322:+_ENSG00000196586_ENST00000369975|hu_hu|FALSE|FALSE (ssRNA)
RNA: GGGAGUUCUACAGUCCGACGAUCAACAACUGAGCUCUUUUCAUUAAAAUGUAUUUCUACAAAUUUCCCAAAUCGACUGCUAUUAUUGUUGCGAACAGUCUUCGCAUUUCCAAAGGCUUCUAGGAGUGGGUUAGCUUCAACAAUCAACAGAGGAUUGAGCAUCA
B19: chr4:99997526:99997527:-_ENSG00000197894_ENST00000296412|hu_hu|motif|central (ssRNA)
RNA: GGGAGUUCUACAGUCCGACGAUCGGAAUAGUCCACUCCUCCAUCGGUCAUCUCAAUGAGCACUUCCUGGAUGGGUUUACGGAAAUCCUGAGGGUUAAUACAUUCAGUGGCUCCAAACUCUUUGGCCCUUGCAAAUUUAUCUUUCAACAGAGGAUUGAGCAUCA
B20: chr12:39763582:39763583:-_ENSG00000139116_ENST00000544797|hu_mus|hu_hu_hu_mus_False|8_18 (ssRNA)
RNA: GGGAGUUCUACAGUCCGACGAUCCUCUAGGAACUGGGCAUUCACUUUGAAUUCAGGAGGGGGCAGCCCGUUUUUAAUCGCUGAGGUCUUUUUCUCAUCAAUACUCUUGAACAGGUGUUUAACAGCUCGAGAAAUAAUGCCCUGCAACAGAGGAUUGAGCAUCA
B21: chr1:43830971:43830972:-_ENSG00000066322_ENST00000372458|hu_mus|FALSE|FALSE (ssRNA)
RNA: GGGAGUUCUACAGUCCGACGAUCUCGAAGUUGGAAGGGCUUCCGAUUAGCCAUGAUUCGAGGCCCAAGCGAUAGGAUGAAGUACACAUAGGUCAGAAGGAUGGAUGUUAUUAGCAAGGGGGACCCCAUCAGAGGGUAGCUUUGCAACAGAGGAUUGAGCAUCA
B22: chr11:47074021:47074022:+_ENSG00000149179_ENST00000278460|hu_mus|FALSE|FALSE (ssRNA)
RNA: GGGAGUUCUACAGUCCGACGAUCACCAUUUUUCCCUACAGUUCGGAAGCAUCUCCAGAAGGCCCGAAGGAAUGAUGCUCUAUUAUGAGGUGUGGCUUGUAUAAAGCUGAAUUCCCGGAAGAGAAUGUGAGUUCCUUGGCAUACCAACAGAGGAUUGAGCAUCA

Target: T1, UNK ZnF1-3
Experiment: nsRBNS (natural sequence RNA bind-n-seq); RBNS binding buffer (assumed for nsRBNS): 25 mM Tris pH 7.5, 150 mM KCl, 3 mM MgCl2, 0.01% Triton X-100, 500 ug/ml BSA, 20 U/ml SUPERase-In, 4 C; UNK is unkempt and MSI1 is Musashi-1; names of the RNAs are library labels; protein concentration not given here; high values mean tight binding

Row | Binder | binding signal [enrichment R]
1 | B1 | 0.838
2 | B2 | 0.935
3 | B3 | 1.09
4 | B4 | 1.75
5 | B5 | 0.872
6 | B6 | 0.66
7 | B7 | 1.16
8 | B8 | 1.17
9 | B9 | 0.406
10 | B10 | 1.34
11 | B11 | 1.25
12 | B12 | 1.44
13 | B13 | 1.12
14 | B14 | 0.85
15 | B15 | 1.09
16 | B16 | 0.841
17 | B17 | 1.05
18 | B18 | 1.04
19 | B19 | 0.86
20 | B20 | 1.43
21 | B21 | 1.68
22 | B22 | 1.52
